Source: the supplement of paper PMC12217912
The other results are listed elsewhere or left out. The full chains were built here from the parent and the listed change. Values near 0.05 are background.

B1: TEV protease; numbered along this chain (parent)
chain: MGESLFKGPRDYNPISSSICHLTNESDGHTTSLYGIGFGPFIITNKHLFRRNNGTLVVQSLHGVFKVKDTTTLQQHLVDGRDMIIIRMPKDFPPFPQKLKFREPQREERICLVTTNFQTKSMSSMVSDTSCTFPSGDGIFWKHWIQTKDGQCGSPLVSTRDGFIVGIHSASNFTNTNNYFTSVPKNFMELLTNQEAQQWVSGWRLNADSVLWGGHKVFMVKPEEPFQPVKEATQL

Variants of: B1
Test: raw area under fraction-flipped curve 0-4 h after induction (AUC4h, not background-subtracted), DNA-recorder readout of cleavage of the substrate (dimensionless); higher = more cleavage of the substrate by the protease variant
Settings: temperature: 34 °C; time window: 0-4 h after rhamnose induction
Procedure: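 In vivo DNA recorder in E. coli TOP10(DE3) ΔrhaA at 34 °C. Each TEVp single-site mutant (parent TEVp 0) is paired with a single-site variant of the 7-mer TEVs (canonical ENLYFQ|S). The substrate sits between flexible linkers in a Bxb1-sfGFP-TEVs-SsrA fusion, so cleavage stabilises Bxb1 and speeds flipping of a recombination array, read by NGS. The value is the raw area under the fraction-flipped curve over 0-4 h after rhamnose induction (AUC4h), with ≥20 reads per time point. It is not background-subtracted; inactive controls average about 0.047.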
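Also: Bxb1 expression induced with 0.2% (w/v) L-rhamnose at OD600 near 0.5, cultures sampled hourly, flipped fraction per protease–substrate barcode pair counted by paired-end Illumina sequencing.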

Row | Variant | area with substrate ECLYFQS | area with substrate EQLYFQS | area with substrate EDLYFQS | area with substrate EELYFQS | area with substrate EFLYFQS | area with substrate EGLYFQS | area with substrate EHLYFQS | area with substrate EILYFQS | area with substrate EKLYFQS | area with substrate ELLYFQS | area with substrate EMLYFQS | area with substrate ERLYFQS | area with substrate ESLYFQS | area with substrate ETLYFQS | area with substrate EVLYFQS | area with substrate EWLYFQS | area with substrate EALYFQS | area with substrate EPLYFQS | area with substrate EYLYFQS
1 | V78Q | 0.0753 | 0.0617 |  |  |  |  |  |  |  |  |  |  |  |  |  |  |  |  | 
2 | F38S | 0.0823 | 0.107 | 0.0955 | 0.0843 | 0.0788 | 0.0877 | 0.0779 | 0.0766 | 0.0894 | 0.0796 | 0.088 | 0.0778 | 0.0843 | 0.0935 | 0.0756 | 0.0791 |  |  | 
3 | K230R | 0.109 |  |  | 0.0975 |  |  |  | 0.107 |  |  | 0.116 | 0.103 | 0.112 | 0.146 | 0.131 |  | 0.0862 | 0.139 | 
4 | H76Y | 0.0998 | 0.0915 | 0.125 |  |  | 0.0531 | 0.0809 | 0.0693 | 0.0934 |  | 0.0804 | 0.0844 | 0.0836 |  | 0.085 | 0.0825 |  |  | 
5 | I84M | 0.101 | 0.0858 | 0.145 |  |  | 0.0933 |  |  | 0.0689 |  |  | 0.107 | 0.0907 |  |  |  |  |  | 0.0885
6 | K90D | 0.147 |  | 0.146 |  | 0.124 |  |  | 0.0895 |  |  | 0.115 |  | 0.0915 | 0.0972 |  | 0.0963 |  |  | 
7 | G37D | 0.0498 | 0.0425 |  |  |  |  | 0.0287 |  | 0.0097 |  |  | 0.0368 | 0.0451 | 0.0399 | 0.0297 |  |  | 0.0337 | 
8 | T71S | 0.086 |  |  |  |  |  | 0.0823 | 0.0748 | 0.1 |  |  | 0.0728 | 0.0836 |  | 0.0908 |  |  |  | 
9 | L5I | 0.156 |  | 0.171 | 0.153 |  |  |  | 0.111 | 0.158 |  |  | 0.107 |  | 0.191 |  |  |  |  | 0.0844
10 | P9T | 0.0567 | 0.0714 |  |  | 0.0743 |  | 0.0579 | 0.0779 | 0.137 | 0.0786 | 0.113 | 0.111 | 0.158 |  |  |  |  |  | 
11 | P9D | 0.107 |  | 0.0793 |  |  |  | 0.128 |  | 0.112 |  |  |  | 0.0994 |  | 0.0547 |  |  | 0.128 | 0.0995
12 | F226P |  | 0.124 | 0.155 |  |  |  |  |  | 0.0849 |  |  | 0.114 | 0.0607 |  | 0.103 | 0.108 | 0.108 | 0.169 | 
13 | F92Q | 0.114 |  | 0.13 |  | 0.104 |  | 0.112 |  | 0.0861 | 0.07 | 0.116 | 0.109 | 0.101 |  | 0.091 | 0.0978 |  | 0.102 | 
14 | F92S | 0.0863 | 0.103 | 0.132 |  | 0.0965 | 0.0891 | 0.0929 | 0.0801 | 0.0686 |  |  |  | 0.0833 |  | 0.0848 |  |  | 0.0907 | 
15 | F92M | 0.06 |  |  |  |  |  |  | 0.1 |  |  |  | 0.109 | 0.132 |  |  | 0.153 |  |  | 
16 | G63E | 0.0981 | 0.0644 | 0.11 | 0.101 |  | 0.0724 | 0.116 |  |  | 0.0824 | 0.0898 | 0.0973 |  |  |  |  |  |  | 
17 | Q74N | 0.119 |  |  | 0.126 |  |  |  | 0.115 | 0.0953 |  | 0.0422 |  |  |  |  | 0.137 |  | 0.116 | 
18 | Q74T | 0.0789 | 0.0725 | 0.104 |  |  |  | 0.124 | 0.0381 | 0.0676 | 0.0766 | 0.0838 | 0.0575 | 0.066 |  |  |  |  |  | 

Row | Variant | area with substrate ECLYFQS | area with substrate EQLYFQS | area with substrate EDLYFQS | area with substrate EELYFQS | area with substrate EFLYFQS | area with substrate EGLYFQS | area with substrate EHLYFQS | area with substrate EILYFQS | area with substrate EKLYFQS | area with substrate ELLYFQS | area with substrate EMLYFQS | area with substrate ERLYFQS | area with substrate ESLYFQS | area with substrate ETLYFQS | area with substrate EVLYFQS | area with substrate EWLYFQS | area with substrate EALYFQS | area with substrate EPLYFQS | area with substrate EYLYFQS
19 | P14F | 0.1 |  | 0.13 | 0.104 |  | 0.0889 |  | 0.0868 | 0.0554 | 0.0867 | 0.098 | 0.0888 | 0.0745 |  |  | 0.0942 |  | 0.0986 | 
20 | D82T | 0.0542 |  |  | 0.0661 | 0.0523 | 0.0759 | 0.0534 | 0.0413 | 0.0587 | 0.0507 |  | 0.0417 | 0.0696 |  | 0.0477 |  |  | 0.0615 | 0.0517
21 | I85S | 0.0563 |  | 0.0436 | 0.0505 | 0.0525 |  | 0.0601 | 0.0465 |  | 0.0513 |  | 0.0435 | 0.059 |  |  |  |  |  | 
22 | T23F | 0.0908 | 0.107 | 0.113 | 0.131 |  | 0.0729 | 0.102 | 0.0794 | 0.0888 | 0.0773 | 0.0991 | 0.0868 | 0.09 |  | 0.0952 | 0.0789 |  |  | 0.118
23 | D69A | 0.0896 | 0.0973 |  |  |  | 0.0832 |  |  | 0.0777 |  | 0.0909 | 0.0898 | 0.102 |  | 0.0672 | 0.0752 |  |  | 
24 | R50A | 0.111 |  |  | 0.158 | 0.109 | 0.0945 |  | 0.124 | 0.12 | 0.0061 | 0.152 |  | 0.109 |  | 0.107 | 0.0916 |  | 0.124 | 
25 | K68S | 0.121 | 0.0821 |  |  |  |  |  | 0.0828 | 0.131 | 0.0782 |  |  | 0.1 |  |  | 0.0893 |  |  | 
26 | P89R | 0.074 | 0.092 |  | 0.101 |  | 0.0635 |  | 0.0595 | 0.0986 |  |  | 0.0725 | 0.0666 |  | 0.0736 | 0.0641 |  | 0.0838 | 
27 | P89T | 0.101 |  | 0.0888 |  | 0.0987 | 0.0798 |  |  |  |  | 0.0818 | 0.0846 | 0.0836 | 0.0808 | 0.0744 |  |  |  | 
28 | H62E | 0.127 | 0.123 |  | 0.0938 |  |  |  |  |  | 0.098 | 0.0985 |  | 0.111 |  | 0.0946 |  |  | 0.11 | 
29 | T233F | 0.0875 | 0.0834 | 0.107 | 0.105 |  | 0.0981 |  |  | 0.107 | 0.0742 | 0.148 |  | 0.125 |  | 0.101 | 0.102 | 0.101 |  | 0.148
30 | T233A | 0.113 |  |  |  |  | 0.0901 | 0.116 | 0.0908 |  |  |  | 0.0966 | 0.134 |  | 0.103 |  | 0.136 |  | 
31 | I86P | 0.033 | 0.0418 | 0.0336 |  | 0.049 |  | 0.0417 | 0.0378 |  |  |  |  | 0.0399 | 0.0298 |  | 0.0397 |  | 0.0389 | 0.0354
32 | I86M | 0.101 | 0.12 | 0.122 |  | 0.122 | 0.104 |  | 0.0851 | 0.12 | 0.0976 | 0.108 |  |  | 0.101 | 0.0933 | 0.0809 |  | 0.121 | 0.111
33 | E231S |  |  | 0.14 | 0.105 |  |  |  | 0.0887 | 0.124 | 0.0896 |  |  | 0.105 |  |  | 0.109 | 0.107 | 0.119 | 
34 | D27F | 0.0931 | 0.0926 |  |  |  |  |  |  |  |  |  | 0.101 | 0.0924 |  | 0.0877 | 0.076 |  | 0.124 | 0.116
35 | G54P | 0.0559 | 0.125 |  |  |  |  | 0.0586 | 0.0522 | 0.0702 |  | 0.0737 | 0.0589 | 0.0641 |  |  | 0.0617 |  |  | 
